Experiment [1] concerns the target T1, FLAG-tagged FBXO38 (WT) (UniProt Q6PIJ6).
T1 sequence: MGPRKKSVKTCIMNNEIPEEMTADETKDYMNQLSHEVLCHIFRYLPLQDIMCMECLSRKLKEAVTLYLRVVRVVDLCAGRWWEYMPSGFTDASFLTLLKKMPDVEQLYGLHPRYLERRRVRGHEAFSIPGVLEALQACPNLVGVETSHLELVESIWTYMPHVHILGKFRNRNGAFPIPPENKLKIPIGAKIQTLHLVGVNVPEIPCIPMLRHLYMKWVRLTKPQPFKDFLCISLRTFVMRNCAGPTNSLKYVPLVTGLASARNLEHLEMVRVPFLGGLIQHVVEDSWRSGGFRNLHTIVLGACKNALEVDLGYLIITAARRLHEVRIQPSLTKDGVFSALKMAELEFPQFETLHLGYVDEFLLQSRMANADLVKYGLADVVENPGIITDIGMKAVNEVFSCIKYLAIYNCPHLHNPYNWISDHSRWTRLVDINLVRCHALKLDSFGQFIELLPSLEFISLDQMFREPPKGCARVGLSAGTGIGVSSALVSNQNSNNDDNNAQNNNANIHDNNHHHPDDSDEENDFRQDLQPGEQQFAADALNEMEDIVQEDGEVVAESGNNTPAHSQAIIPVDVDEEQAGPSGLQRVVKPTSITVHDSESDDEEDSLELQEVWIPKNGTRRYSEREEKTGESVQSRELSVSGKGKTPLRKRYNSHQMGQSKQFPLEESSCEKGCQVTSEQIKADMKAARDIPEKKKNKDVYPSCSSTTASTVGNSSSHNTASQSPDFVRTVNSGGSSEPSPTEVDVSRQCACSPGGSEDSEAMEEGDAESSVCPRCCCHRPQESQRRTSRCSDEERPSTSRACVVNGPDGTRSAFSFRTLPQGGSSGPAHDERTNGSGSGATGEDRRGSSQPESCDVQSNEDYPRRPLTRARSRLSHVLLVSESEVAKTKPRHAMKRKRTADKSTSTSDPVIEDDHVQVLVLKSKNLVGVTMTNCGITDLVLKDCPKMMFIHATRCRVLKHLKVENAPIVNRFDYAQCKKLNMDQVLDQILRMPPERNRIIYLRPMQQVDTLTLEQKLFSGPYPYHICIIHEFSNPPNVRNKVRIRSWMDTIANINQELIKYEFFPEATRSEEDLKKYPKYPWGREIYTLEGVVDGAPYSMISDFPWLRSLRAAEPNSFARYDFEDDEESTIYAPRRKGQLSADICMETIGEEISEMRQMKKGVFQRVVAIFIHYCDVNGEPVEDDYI
Briefly: co-IP; Supplementary Fig. S3: recovery of endogenous KIF20B and transiently expressed HA-KIF20B with FLAG-FBXO38 compared with FLAG-USP11 and FLAG-β-gal; cells not given.

Protein sequences, listed by entry. Tags and fused reporters are not part of them. Lines headed by an entry give the natural chain unless they say otherwise; changes in a name come on top.
UniProt Q93009: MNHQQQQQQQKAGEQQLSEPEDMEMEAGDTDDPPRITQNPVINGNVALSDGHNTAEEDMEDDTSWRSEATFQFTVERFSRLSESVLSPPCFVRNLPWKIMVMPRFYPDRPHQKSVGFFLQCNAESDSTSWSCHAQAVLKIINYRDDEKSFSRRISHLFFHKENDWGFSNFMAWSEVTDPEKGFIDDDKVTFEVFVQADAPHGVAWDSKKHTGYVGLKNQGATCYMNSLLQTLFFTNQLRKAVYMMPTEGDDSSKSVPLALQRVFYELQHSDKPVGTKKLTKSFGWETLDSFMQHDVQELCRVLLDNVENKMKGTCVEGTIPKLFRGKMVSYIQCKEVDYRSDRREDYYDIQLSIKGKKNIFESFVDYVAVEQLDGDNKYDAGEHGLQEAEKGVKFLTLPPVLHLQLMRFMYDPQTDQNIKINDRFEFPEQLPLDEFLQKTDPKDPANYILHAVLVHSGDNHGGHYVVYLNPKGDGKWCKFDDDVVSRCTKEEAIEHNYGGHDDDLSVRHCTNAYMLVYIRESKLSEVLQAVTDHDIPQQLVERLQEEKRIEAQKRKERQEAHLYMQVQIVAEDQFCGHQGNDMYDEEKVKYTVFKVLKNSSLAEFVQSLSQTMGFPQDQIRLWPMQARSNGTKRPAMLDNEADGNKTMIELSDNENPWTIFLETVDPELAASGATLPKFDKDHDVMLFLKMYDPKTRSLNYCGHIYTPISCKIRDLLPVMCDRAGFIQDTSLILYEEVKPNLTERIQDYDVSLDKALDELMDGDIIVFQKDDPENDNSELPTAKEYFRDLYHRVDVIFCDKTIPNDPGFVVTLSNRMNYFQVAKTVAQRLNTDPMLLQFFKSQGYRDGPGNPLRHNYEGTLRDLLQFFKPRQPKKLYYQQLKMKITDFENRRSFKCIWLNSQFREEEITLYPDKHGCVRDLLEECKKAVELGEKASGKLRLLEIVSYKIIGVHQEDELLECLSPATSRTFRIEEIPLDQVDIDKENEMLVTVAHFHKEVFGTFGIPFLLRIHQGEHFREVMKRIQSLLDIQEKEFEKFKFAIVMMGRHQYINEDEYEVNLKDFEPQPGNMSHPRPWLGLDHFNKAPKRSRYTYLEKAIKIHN
UniProt Q96Q89: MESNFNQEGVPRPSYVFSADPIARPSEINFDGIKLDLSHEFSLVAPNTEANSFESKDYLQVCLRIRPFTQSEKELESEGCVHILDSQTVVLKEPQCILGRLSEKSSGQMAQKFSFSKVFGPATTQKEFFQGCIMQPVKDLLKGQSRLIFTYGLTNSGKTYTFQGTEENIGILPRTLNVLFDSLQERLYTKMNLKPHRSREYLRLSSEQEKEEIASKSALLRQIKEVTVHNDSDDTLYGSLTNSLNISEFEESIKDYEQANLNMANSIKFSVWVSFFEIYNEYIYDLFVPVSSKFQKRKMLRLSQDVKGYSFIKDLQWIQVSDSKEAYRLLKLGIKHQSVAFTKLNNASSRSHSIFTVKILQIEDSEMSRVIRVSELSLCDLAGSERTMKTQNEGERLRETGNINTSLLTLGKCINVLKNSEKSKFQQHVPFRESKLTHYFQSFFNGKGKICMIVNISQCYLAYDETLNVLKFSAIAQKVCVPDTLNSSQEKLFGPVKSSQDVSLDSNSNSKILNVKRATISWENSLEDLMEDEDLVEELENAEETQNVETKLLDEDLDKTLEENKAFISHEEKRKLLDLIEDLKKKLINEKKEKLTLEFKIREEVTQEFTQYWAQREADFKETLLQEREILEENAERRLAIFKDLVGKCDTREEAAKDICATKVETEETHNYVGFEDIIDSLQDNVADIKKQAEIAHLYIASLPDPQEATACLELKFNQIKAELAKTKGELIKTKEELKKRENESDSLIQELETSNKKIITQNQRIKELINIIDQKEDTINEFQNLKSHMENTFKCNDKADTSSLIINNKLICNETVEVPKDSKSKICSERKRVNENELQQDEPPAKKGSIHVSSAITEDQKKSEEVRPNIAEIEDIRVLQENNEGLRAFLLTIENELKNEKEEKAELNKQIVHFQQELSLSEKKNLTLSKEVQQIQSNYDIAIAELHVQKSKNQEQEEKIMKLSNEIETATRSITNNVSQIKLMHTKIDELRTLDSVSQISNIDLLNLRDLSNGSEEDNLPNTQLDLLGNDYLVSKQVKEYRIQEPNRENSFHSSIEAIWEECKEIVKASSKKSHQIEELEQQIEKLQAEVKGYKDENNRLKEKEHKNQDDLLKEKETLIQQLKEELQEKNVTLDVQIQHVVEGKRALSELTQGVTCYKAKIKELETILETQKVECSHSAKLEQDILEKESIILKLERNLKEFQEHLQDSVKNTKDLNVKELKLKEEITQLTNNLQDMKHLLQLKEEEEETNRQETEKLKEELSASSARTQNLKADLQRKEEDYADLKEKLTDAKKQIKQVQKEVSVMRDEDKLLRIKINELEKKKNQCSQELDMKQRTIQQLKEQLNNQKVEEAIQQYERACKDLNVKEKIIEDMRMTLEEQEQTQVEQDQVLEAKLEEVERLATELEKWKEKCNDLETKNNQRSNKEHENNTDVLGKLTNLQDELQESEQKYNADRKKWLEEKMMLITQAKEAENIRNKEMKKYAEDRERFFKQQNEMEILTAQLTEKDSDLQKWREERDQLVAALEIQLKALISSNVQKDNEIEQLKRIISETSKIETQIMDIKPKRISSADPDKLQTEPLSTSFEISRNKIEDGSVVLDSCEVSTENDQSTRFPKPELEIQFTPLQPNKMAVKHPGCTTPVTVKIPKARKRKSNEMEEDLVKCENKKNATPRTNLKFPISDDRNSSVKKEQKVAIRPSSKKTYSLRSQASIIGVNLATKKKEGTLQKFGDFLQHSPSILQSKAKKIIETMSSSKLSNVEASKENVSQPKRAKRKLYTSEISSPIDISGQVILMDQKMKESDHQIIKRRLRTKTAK
UniProt P63208: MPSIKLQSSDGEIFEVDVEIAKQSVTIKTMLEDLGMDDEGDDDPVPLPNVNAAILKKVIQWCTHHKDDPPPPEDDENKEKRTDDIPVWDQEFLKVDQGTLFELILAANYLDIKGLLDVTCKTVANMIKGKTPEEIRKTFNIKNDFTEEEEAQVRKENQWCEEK

The target in experiment [2] is T2, FLAG-FBXO38 mutant lacking the first 77 amino acids that contains the F-Box domain (FLAG-FBXO38ΔFBX) (UniProt Q6PIJ6).
T2 sequence: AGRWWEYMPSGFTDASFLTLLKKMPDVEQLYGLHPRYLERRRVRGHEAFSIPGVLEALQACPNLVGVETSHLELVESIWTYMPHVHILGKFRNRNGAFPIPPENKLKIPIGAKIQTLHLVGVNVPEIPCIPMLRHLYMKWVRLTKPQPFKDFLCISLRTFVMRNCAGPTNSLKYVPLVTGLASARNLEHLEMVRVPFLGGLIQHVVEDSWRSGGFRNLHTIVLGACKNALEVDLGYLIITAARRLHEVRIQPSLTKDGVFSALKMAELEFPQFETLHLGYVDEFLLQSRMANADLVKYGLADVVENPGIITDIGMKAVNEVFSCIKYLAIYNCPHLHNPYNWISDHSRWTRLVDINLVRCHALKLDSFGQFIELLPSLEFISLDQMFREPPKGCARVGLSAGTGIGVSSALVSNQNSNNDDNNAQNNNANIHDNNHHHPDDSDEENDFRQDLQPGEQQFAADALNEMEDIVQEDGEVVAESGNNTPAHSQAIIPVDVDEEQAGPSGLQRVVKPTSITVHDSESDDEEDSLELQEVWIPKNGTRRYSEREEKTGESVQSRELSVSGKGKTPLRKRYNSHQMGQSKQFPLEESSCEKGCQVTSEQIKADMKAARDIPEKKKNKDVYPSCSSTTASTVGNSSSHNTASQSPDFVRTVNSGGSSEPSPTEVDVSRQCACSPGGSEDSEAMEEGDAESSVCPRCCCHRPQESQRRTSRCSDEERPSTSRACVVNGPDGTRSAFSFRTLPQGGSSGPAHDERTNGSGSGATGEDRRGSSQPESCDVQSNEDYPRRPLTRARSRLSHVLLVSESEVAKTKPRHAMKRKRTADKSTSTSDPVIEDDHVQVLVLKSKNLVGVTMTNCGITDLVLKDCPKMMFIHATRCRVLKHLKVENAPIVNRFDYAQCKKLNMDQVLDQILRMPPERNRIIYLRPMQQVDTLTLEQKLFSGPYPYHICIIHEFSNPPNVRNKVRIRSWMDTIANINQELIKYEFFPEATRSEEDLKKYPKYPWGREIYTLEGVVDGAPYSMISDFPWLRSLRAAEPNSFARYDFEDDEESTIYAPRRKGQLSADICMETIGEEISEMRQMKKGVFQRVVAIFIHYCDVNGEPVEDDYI
Nature of the experiment: co-IP; 293T cells co-transfected with HA-KIF20B and FLAG-FBXO38 WT or ΔFBX; lysis buffer 50 mM Tris-HCl pH 8.0, 150 mM NaCl, 10% glycerol, 0.1% NP-40; anti-FLAG M2 resin; Western blot for FLAG, HA and Skp1.

The target of experiment [3] is T1, FLAG-tagged FBXO38 (WT). The description is as above.
Experiment [4] concerns the target T1, FLAG-tagged FBXO38 (WT). Nature of the experiment: co-IP; AGS cells transfected with FLAG-FBXO38 for 48 hours; lysis buffer 50 mM Tris-HCl pH 8.0, 150 mM NaCl, 10% glycerol, 0.1% NP-40; anti-FLAG M2 resin; Western blot for endogenous KIF20B.
The target in experiment [5] is T1, FLAG-tagged FBXO38 (WT). Nature of the experiment: co-IP; HEK293T cells co-transfected with FLAG-FBXO38 and myc-USP7 constructs; RIPA buffer; M2 anti-FLAG resin overnight at 4 °C; Western blot for FLAG and myc.
The target in experiment [6] is myc-USP7 Ubl2 pocket mutant (Ubl2), D762R,D764R (UniProt Q93009). Nature of the experiment: co-IP; AGS cells transfected with myc-USP7 constructs alone; RIPA buffer; anti-Myc resin overnight at 4 °C; Western blot for endogenous FBXO38.
A further experiment has as its target myc-tagged USP7 WT (UniProt Q93009). The experiment is described as above.

These are yes or no findings as the source states them, for the method shown. Binding seen in cells or lysates may run through a third protein. Some results given as binding are weak or reduced against the parent protein; the word gives no strength. For part of these data: Sequences can lack the tags named with a protein.

Take “HA-tagged KIF20B (from UniProt Q96Q89 1-1820)”: the binding result (in the experiment with FLAG-tagged FBXO38 (WT) [1]; in experiment [2]; with FLAG-tagged FBXO38 (WT) [3]) was “binds” throughout.
For the molecule “Kinesin Family member 20B (KIF20B), endogenous (from UniProt Q96Q89 1-1820)”, the binding entry in the experiment with FLAG-tagged FBXO38 (WT) [1] and with FLAG-tagged FBXO38 (WT) [4] was “binds” in each case.
As to “SKP1 (endogenous) (from UniProt P63208 1-163)”, the binding result was “no binding” in experiment [2] and “binds” with FLAG-tagged FBXO38 (WT) [3].
With “myc-USP7 NTD pocket mutant (DW), D164A,W165A (from UniProt Q93009 1-1102) (enzyme)”, the binding entry in the experiment with FLAG-tagged FBXO38 (WT) [5] was “no binding”.
The same measure, in the same setting: then “myc-USP7 Ubl2 pocket mutant (Ubl2), D762R,D764R (from UniProt Q93009 1-1102) (enzyme)”, with “binds”.
Turning to “myc-tagged USP7 WT (from UniProt Q93009 1-1102) (enzyme)”, the binding result with FLAG-tagged FBXO38 (WT) [5] is “binds”.

B1: F-box protein FBXO38 (endogenous) (protein, UniProt Q6PIJ6 1-1188)
chain: T1 sequence
In the case of B1, the binding result (in experiment [6]; in the experiment with myc-tagged USP7 WT) was “binds” in each case.
